Results: the supplement of paper PMC4604168 (melanoma cell lines)
This is one part of the list. Single values are uncertain, as repeats are few or missing.

What was measured:
Experiment in all cases: cell count relative to DMSO control; melanoma cells; higher = more viable cells
Conditions in all cases: library dose: standard library concentration; 72 h
G361 = test system: G361
IPC-298 = test system: IPC-298
IST-MEL1 = test system: IST-MEL1
LB2518-MEL = test system: LB2518-MEL
LOXIMVI = test system: LOXIMVI
MEL-HO = test system: MEL-HO
MZ2-MEL = test system: MZ2-MEL
MeWo = test system: MeWo
RPMI7951 = test system: RPMI7951
RVH-421 = test system: RVH-421
SkMel28 = test system: SkMel28
SkMel2 = test system: SkMel2
SkMel30 = test system: SkMel30
SkMel5 = test system: SkMel5
UACC257 = test system: UACC257
UACC62 = test system: UACC62
WM115 = test system: WM115
WM1716 = test system: WM1716
WM1745 = test system: WM1745
WM3526 = test system: WM3526
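Note: cells treated in 1,536-well plates, then fixed and DAPI-stained, with nuclei counted from automated high-throughput microscope images.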

SMILES | cell count (G361) [%] | cell count (IPC-298) [%] | cell count (IST-MEL1) [%] | cell count (LB2518-MEL) [%] | cell count (LOXIMVI) [%] | cell count (MEL-HO) [%] | cell count (MZ2-MEL) [%] | cell count (MeWo) [%] | cell count (RPMI7951) [%] | cell count (RVH-421) [%] | cell count (SkMel28) [%] | cell count (SkMel2) [%] | cell count (SkMel30) [%] | cell count (SkMel5) [%] | cell count (UACC257) [%] | cell count (UACC62) [%] | cell count (WM115) [%] | cell count (WM1716) [%] | cell count (WM1745) [%] | cell count (WM3526) [%]
CC(=O)O[C@@]12CO[C@@H]1C[C@H](O)[C@@]1(C)C(=O)[C@H](O)C3=C(C)[C@@H](OC(=O)[C@H](O)[C@@H](NC(=O)OC(C)(C)C)c4ccccc4)C[C@@](O)([C@@H](OC(=O)c4ccccc4)[C@H]21)C3(C)C [Docetaxel] + COc1cc2c(Oc3ccc4[nH]c(C)cc4c3F)ncnc2cc1OCCCN1CCCC1 [cediranib] (first compound 0.0005 µM, partner dose 2 µM) | 15 | 48.5 | 38 | 39.6 | 49.4 | 42.3 | 45.3 | 25.9 | 14.2 | 52.5 | 14.5 | 15.5 | 52.9 | 28.8 | 62.3 | 62.4 | 32.2 | 34.1 | 32.4 | 30
CC(=O)c1c(C)c2cnc(Nc3ccc(N4CCNCC4)cn3)nc2n(C2CCCC2)c1=O [palbociclib] + O=C(Nc1cccc(Cl)c1)Nc1ncc(CCNc2ncnc3ccsc23)s1 [SNS314] (first compound 0.2 µM, partner dose 0.004 µM) | 58.9 | 73.2 | 59.7 | 57.3 | 77.8 | 63 | 65.9 | 46 | 70.1 | 49.5 | 43 | 55 | 84 | 52.3 | 53.7 | 77.8 | 44.1 | 40.8 | 67 | 45.4
CC(=O)O[C@@]12CO[C@@H]1C[C@H](O)[C@@]1(C)C(=O)[C@H](O)C3=C(C)[C@@H](OC(=O)[C@H](O)[C@@H](NC(=O)OC(C)(C)C)c4ccccc4)C[C@@](O)([C@@H](OC(=O)c4ccccc4)[C@H]21)C3(C)C [Docetaxel] + CO[C@@H]1[C@H](N(C)C(=O)c2ccccc2)C[C@H]2O[C@]1(C)n1c3ccccc3c3c4c(c5c6ccccc6n2c5c31)C(=O)NC4 [Midostaurin] (first compound 0.0005 µM, partner dose 0.4 µM) | 21.7 | 35.8 | 27.9 | 36.7 | 43.6 | 43.8 | 45.5 | 25.1 | 39.5 | 51.2 | 33.9 | 39.3 | 64.5 | 35.5 | 53.5 | 45.4 | 45.1 | 36.8 | 23.3 | 34.5
CO[C@H]1C[C@@H]2CC[C@@H](C)[C@@](O)(O2)C(=O)C(=O)N2CCCC[C@H]2C(=O)O[C@H]([C@H](C)C[C@@H]2CC[C@@H](OCCO)[C@H](OC)C2)CC(=O)[C@H](C)/C=C(\C)[C@@H](O)[C@@H](OC)C(=O)[C@H](C)C[C@H](C)/C=C/C=C/C=C/1C [everolimus] + OCc1c[nH]c2ccccc12 [Indole-3-carbinol] (first compound 0.1 µM, partner dose 4 µM) | 58.8 | 75.6 | 91.1 | 80.3 | 63.7 | 73.1 | 80.1 | 55.7 | 90.9 | 82.2 | 45.9 | 82.8 | 63.1 | 66.5 | 102 | 63.2 | 61.9 | 62.5 | 85.4 | 69.6
CO[C@H]1C[C@@H]2CC[C@@H](C)[C@@](O)(O2)C(=O)C(=O)N2CCCC[C@H]2C(=O)O[C@H]([C@H](C)C[C@@H]2CC[C@@H](OCCO)[C@H](OC)C2)CC(=O)[C@H](C)/C=C(\C)[C@@H](O)[C@@H](OC)C(=O)[C@H](C)C[C@H](C)/C=C/C=C/C=C/1C [everolimus] + O=C(CCCCCCC(=O)Nc1ccccc1)NO [vorinostat] (first compound 0.1 µM, partner dose 0.4 µM) | 60.2 | 70.7 | 75.8 | 87 | 71.9 | 76.9 | 105 | 75.1 | 83.3 | 92.7 | 40.9 | 73 | 63.9 | 78.4 | 63.2 | 82.2 | 87.8 | 88.4 | 110 | 82.4
Nc1ncn([C@H]2C[C@H](O)[C@@H](CO)O2)c(=O)n1 [decitabine] + CN(C)S(=O)(=O)c1ccc2c(c1)/C(=C/c1cc3c([nH]1)CCCC3)C(=O)N2 [SU6656] (first compound 0.5 µM, partner dose 2 µM) | 72 | 53.5 | 52.7 | 65.3 | 103 | 71.3 | 83.9 | 55.6 | 51.9 | 76.4 | 77 | 79.7 | 91.4 | 66.1 | 96.4 | 63.8 | 47.3 | 48.3 | 45.9 | 68.6
Nc1ncn([C@H]2C[C@H](O)[C@@H](CO)O2)c(=O)n1 [decitabine] + NCC(=O)Nc1ccc(-n2nc(C(F)(F)F)cc2-c2ccc3c(ccc4ccccc43)c2)cc1 [OSU03012] (first compound 0.5 µM, partner dose 5 µM) | 87.9 | 51.3 | 79.7 | 70.6 | 69.3 | 66.6 | 89.7 | 64.2 | 52.6 | 72.1 | 26.6 | 46.2 | 30.6 | 63.7 | 73.2 | 57.2 | 65.6 | 74.9 | 104 | 52.8
CO[C@H]1C[C@@H]2CC[C@@H](C)[C@@](O)(O2)C(=O)C(=O)N2CCCC[C@H]2C(=O)O[C@H]([C@H](C)C[C@@H]2CC[C@@H](OCCO)[C@H](OC)C2)CC(=O)[C@H](C)/C=C(\C)[C@@H](O)[C@@H](OC)C(=O)[C@H](C)C[C@H](C)/C=C/C=C/C=C/1C [everolimus] + C=C(c1ccc(C(=O)O)cc1)c1cc2c(cc1C)C(C)(C)CCC2(C)C [Bexarotene] (first compound 0.1 µM, partner dose 10 µM) | 48.3 | 58.6 | 66.9 | 79.7 | 69 | 56.7 | 82.8 | 68.1 | 87.1 | 91.9 | 41.6 | 49.5 | 50.5 | 53.7 | 82.3 | 55.7 | 76.2 | 63 | 99.7 | 59.1
CC(=O)O[C@@]12CO[C@@H]1C[C@H](O)[C@@]1(C)C(=O)[C@H](O)C3=C(C)[C@@H](OC(=O)[C@H](O)[C@@H](NC(=O)OC(C)(C)C)c4ccccc4)C[C@@](O)([C@@H](OC(=O)c4ccccc4)[C@H]21)C3(C)C [Docetaxel] + OCCn1cc(-c2cnc3nnn(Cc4ccc5ncccc5c4)c3n2)cn1 [PF04217903] (first compound 0.0005 µM, partner dose 5 µM) | 10.5 | 44.5 | 47.9 | 43.7 | 71.2 | 45.6 | 48 | 28.4 | 26 | 36.9 | 12 | 16.7 | 53.9 | 32.9 | 61.3 | 65.6 | 41.3 | 34.3 | 41 | 42
CO[C@H]1C[C@@H]2CC[C@@H](C)[C@@](O)(O2)C(=O)C(=O)N2CCCC[C@H]2C(=O)O[C@H]([C@H](C)C[C@@H]2CC[C@@H](OCCO)[C@H](OC)C2)CC(=O)[C@H](C)/C=C(\C)[C@@H](O)[C@@H](OC)C(=O)[C@H](C)C[C@H](C)/C=C/C=C/C=C/1C [everolimus] + CC1(C)NC(=O)N(c2ccc([N+](=O)[O-])c(C(F)(F)F)c2)C1=O [nilutamide] (first compound 0.1 µM, partner dose 5 µM) | 63.1 | 86.3 | 38.5 | 63.4 | 90.2 | 69 | 99.9 | 62.1 | 104 | 64.5 | 33 | 53.1 | 81.5 | 59.9 | 95.9 | 73.5 | 69.3 | 99.8 | 85.4 | 73.8
Nc1nc(F)nc2c1ncn2[C@@H]1O[C@H](CO)[C@@H](O)[C@@H]1O [fludarabine] + Nc1cccc2c1CN(C1CCC(=O)NC1=O)C2=O [lenalidomide] (first compound 1 µM, partner dose 5 µM) | 89.1 | 66.7 | 62.2 | 90.9 | 80.1 | 83.4 | 86.7 | 81.7 | 63.5 | 73.8 | 1.64 | 1.77 | 13 | 16.1 | 23.8 | 60 | 83.8 | 98.4 | 105 | 18.6
CC(=O)O[C@@]12CO[C@@H]1C[C@H](O)[C@@]1(C)C(=O)[C@H](O)C3=C(C)[C@@H](OC(=O)[C@H](O)[C@@H](NC(=O)OC(C)(C)C)c4ccccc4)C[C@@](O)([C@@H](OC(=O)c4ccccc4)[C@H]21)C3(C)C [Docetaxel] + CC1(C)NC(=O)N(c2ccc([N+](=O)[O-])c(C(F)(F)F)c2)C1=O [nilutamide] (first compound 0.0005 µM, partner dose 5 µM) | 13.7 | 41.8 | 31.4 | 34.1 | 43.7 | 41.3 | 39.8 | 23.9 | 15.1 | 56.6 | 19.8 | 14.3 | 34.9 | 21 | 46 | 43.9 | 26.5 | 27.5 | 32.4 | 38.2
Nc1ccn([C@@H]2O[C@H](CO)[C@@H](O)C2(F)F)c(=O)n1 [gemcitabine] + OCCn1cc(-c2cnc3nnn(Cc4ccc5ncccc5c4)c3n2)cn1 [PF04217903] (first compound 0.002 µM, partner dose 5 µM) | 50.7 | 56.7 | 38.3 | 52.8 | 74.1 | 60.7 | 85.3 | 40.8 | 58.1 | 77.7 | 84.2 | 83.4 | 90.9 | 81.2 | 105 | 79.3 | 88.7 | 67.8 | 49.7 | 85.2
CC(=O)O[C@@]12CO[C@@H]1C[C@H](O)[C@@]1(C)C(=O)[C@H](O)C3=C(C)[C@@H](OC(=O)[C@H](O)[C@@H](NC(=O)OC(C)(C)C)c4ccccc4)C[C@@](O)([C@@H](OC(=O)c4ccccc4)[C@H]21)C3(C)C [Docetaxel] + Cn1c(=O)n(-c2ccc(C(C)(C)C#N)cc2)c2c3cc(-c4cnc5ccccc5c4)ccc3ncc21 [NVP-BEZ235] (first compound 0.0005 µM, partner dose 0.02 µM) | 13.1 | 41.7 | 48.5 | 51.6 | 66.5 | 50.8 | 45.9 | 28.1 | 34.7 | 77.8 | 10.1 | 17.6 | 49.3 | 34.8 | 56.4 | 59.3 | 32.8 | 32.7 | 36.3 | 41.4
CC(=O)O[C@@]12CO[C@@H]1C[C@H](O)[C@@]1(C)C(=O)[C@H](O)C3=C(C)[C@@H](OC(=O)[C@H](O)[C@@H](NC(=O)OC(C)(C)C)c4ccccc4)C[C@@](O)([C@@H](OC(=O)c4ccccc4)[C@H]21)C3(C)C [Docetaxel] + Cc1ccc(NC(=O)c2cccc(N(C)C)c2)cc1NC(=O)c1ccc(O)cc1 [ZM336372] (first compound 0.0005 µM, partner dose 10 µM) | 12.1 | 45.5 | 30.1 | 31.3 | 71.7 | 33.8 | 52.8 | 24.7 | 21.6 | 33.8 | 12.3 | 22.1 | 42.7 | 40 | 46.1 | 54.7 | 42.9 | 33.6 | 28.8 | 30.6
